# Screen size: about 390,000 compounds; about 930 (0.24%) were called active. Inconclusive results, whose numbers are uncertain, are shown with a selection of clear calls. Calls follow the shape of the dose curve; as a rule, active = well fitted activation curve with a large enough effect; inconclusive = small, poorly fitted or top-dose-only effect; inactive = no such curve, though single readings can be large or run the other way. A potency beside an inconclusive call is a rough fit, not a confirmed value.
# Experiment: qHTS for Suppressors of FUS Proteinopathy: Primary screen using FUS-linked yeast assay; also: nearly all actives have a fitted effect of over 55% in size
# Settings: S. cerevisiae FUS-expressing, OD600, 24 h; Potency: growth rescue; series mostly up to 76.6 µM
# Procedure, shortened: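 Read-out: OD at 600 nm after 24hr at 30C, reporting rescue of FUS-induced yeast toxicity. Cells at OD 0.005 in galactose (2%) minimal medium; compounds tested in a dilution series; CP55940 titration from 92uM final as control.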
# Potency is read from the fitted curve at half-maximal effect; tags tell the direction and shape of the fitted curve.
row,SMILES,Potency
1,CCc1ccccc1NC(=O)CSc1nnc([C@@H](NC(=O)OC(C)(C)C)C(C)C)o1,"inconclusive: 31.6 µM [activator, partial curve, poor fit]"
2,CCn1c2ccccc2c2cc(/C=N/NC(=O)c3ccccc3)ccc21,"inconclusive: 44.7 µM [activator, single point]"
3,CCC1(C)Cc2[nH]c(=O)c(C#N)cc2CO1 (stereo not drawn),inactive
4,COc1ccc(NC(=O)Cn2c(=O)n(-c3ccc(C)cc3)c(=O)c3c2c2cc(C)ccc2n3C)cc1,inactive
5,COc1ccc(NC(=O)C2(C)Cc3c(-c4ccc(N(C)C)cc4)ccnc3O2)cc1 (stereo not drawn),"inconclusive: 25.1 µM [activator, partial curve, poor fit]"
6,CCOC(=O)c1sc(NC(=O)CSc2nnc(-c3ccco3)n2CC)c(C(=O)OCC)c1C,"inconclusive: 31.6 µM [activator, partial curve, poor fit]"
7,COc1ccc(Cc2nc3ccccc3n2Cc2ccccc2C)cc1,inactive
8,O=C(NCc1cccc(Cl)c1)c1ccc(NC(=O)N2CCSc3ccccc32)cc1,inactive
9,COc1ccc(-c2cc3ccc(O)c(CN4CCCC(C)C4)c3oc2=O)cc1OC (stereo not drawn),"inconclusive: 15.8 µM [activator, partial curve, poor fit]"
10,COc1ccc(C)cc1NC(=O)C(C)N(c1ccc(C)cc1)S(C)(=O)=O (stereo not drawn),"inconclusive: 31.6 µM [activator, partial curve, poor fit]"
11,CC(Oc1ccccc1)C(=O)Nc1ccc(C(=O)OCc2cc(=O)n3nc(C4CC4)sc3n2)cc1 (stereo not drawn),"inconclusive: 35.5 µM [activator, single point]"
12,COc1cc2sc3ccc(-c4ccc5[nH]ccc5c4)cc3c(=O)c2cc1OC,"inconclusive: 31.6 µM [activator, partial curve, poor fit]"
13,CCOC(=O)[C@]12CCCC=C1N(CCCOC)C(=O)[C@@H]2CC(=O)N1CCC(c2ccccc2)CC1,inactive
14,Cc1nn(-c2ccccc2)c2c1P(=O)(O)/C(=C1\N(C)c3ccccc3C1(C)C)C=N2,"inconclusive: 39.8 µM [activator, partial curve, poor fit]"
15,COc1ccc(CCNC(=O)c2c(N)[nH]c(C(=O)c3ccccc3)c2-c2ccc(N(C)C)cc2)cc1,"inconclusive: 10 µM [activator, full curve, poor fit]"
16,CCOC(=O)C1=C(CNCc2ccccc2Cl)NC(=O)NC1c1ccc2c(c1)OCO2 (stereo not drawn),"inconclusive: 50.1 µM [activator, single point]"
17,C#CCOCCOCCOCCNc1nc(N2CCN(C(=O)CCCCCCCCCCNC(=O)[C@H]([C@@H](C)CC)n3cc(CCCCN=C(N)N)nn3)CC2)nc(N2CCN(C(=O)CCCCCCCCCCNC(=O)[C@H](CCCCN)n3cc(C)nn3)CC2)n1,active: 11.2 µM
18,Cc1ccc(P(=O)(c2ccc(C)cc2)[C@@H](NC(c2ccccc2)c2ccccc2)c2ccccc2)cc1,"inconclusive: 35.5 µM [activator, single point]"
19,CCOC(=O)[C@]12CCCC=C1N(Cc1ccc(Cl)cc1Cl)C(=O)[C@H](CC(=O)NCc1cccc(C(F)(F)F)c1)C2,"inconclusive: 12.6 µM [activator, partial curve, poor fit]"
20,COc1ccc(C2/C=C\CN(C(=O)Nc3ccccc3-c3ccccc3)CC(=O)N2Cc2ccc(F)cc2)cc1 (stereo not drawn),"inconclusive: 22.4 µM [activator, single point]"

row,SMILES,Potency
1,COc1ccc(Cl)cc1Cn1c(C)c(C(=O)NCc2cccc([N+](=O)[O-])c2)sc1=O,"inconclusive: 31.6 µM [activator, single point]"
2,COC(=O)C1CCN(C(=O)CN2CCC(C(=O)c3ccc(C)cc3)CC2)CC1,inactive
3,Cc1ccc(C2(C)NC(=O)N(CC(=O)Nc3cc(S(=O)(=O)N4CCCCC4)ccc3OC(C)C)C2=O)cc1 (stereo not drawn),"inconclusive: 14.1 µM [activator, partial curve, poor fit]"
4,Cc1c(C(=O)NCc2ccc3c(c2)OCO3)oc2ccc(S(=O)(=O)N3CCCCCC3)cc12,inactive
5,CCc1ccccc1NC(=O)CN1C(=O)CCn2nc(-c3cccn3C)cc21,inactive
6,CCOC(=O)Cc1nc(N2CCN(Cc3cccc4c3OCO4)CC2)c2c(C)c(C(=O)OCC)sc2n1,inactive
7,CC(C)C[C@@H](CNCC(=O)[C@H](Cc1c[nH]c2ccccc12)NC(=O)c1[nH]cnc1C(=O)N[C@@H](C)CN)NC(=O)c1nc[nH]c1C(=O)N[C@@H](CC(=O)O)C(=O)O,"inconclusive: 50.1 µM [activator, single point]"
8,CCOC(=O)c1ccc(N2C(=O)CC(N(Cc3ccc4c(c3)OCO4)C(=O)Nc3ccccc3)C2=O)cc1 (stereo not drawn),"inconclusive: 35.5 µM [activator, partial curve, poor fit]"
9,COc1cc(-c2nnc(SCc3cc(=O)oc4cc(C)ccc34)o2)cc(OC)c1OC,"inconclusive: 25.1 µM [activator, partial curve, poor fit]"
10,CCOc1ccccc1-c1nc(-c2ccc(C)nc2OC)no1,"inconclusive: 50.1 µM [activator, single point]"
11,O=c1c(-c2ccco2)nc2ccccc2n1C(c1ccccn1)c1nc2ccccc2[nH]1 (stereo not drawn),inactive
12,Fc1ccc(-n2c(Cc3ccccc3)nnc2SCc2nc(-c3cccs3)no2)cc1,"inconclusive: 25.1 µM [activator, partial curve]"
13,CCOC(=O)[C@H]1[C@H]2COc3cc(OC)ccc3[C@@H]2N2C(=O)CN(Cc3ccc(OC)cc3)C(=O)[C@@]12C,"inconclusive: 31.6 µM [activator, single point]"
14,O=S(=O)(Nc1ccc(-c2ccc(N3CCCCC3)nn2)cc1)c1ccc(OC(F)(F)F)cc1,"inconclusive: 28.2 µM [activator, partial curve, poor fit]"
15,CCOc1ccccc1-c1nc(CN2CCN(C(=O)c3ccco3)CC2)c(C)o1,"inconclusive: 10 µM [activator, partial curve, poor fit]"
16,CCCN(CC(=O)Nc1ccccc1C)C(=O)COC(=O)c1cnc(C)cn1,inactive
17,Cc1cccc([C@@H]2[C@@H]3C(=O)N(Cc4ccccc4)C(=O)[C@@H]3[C@]3(Cc4ccccc4)C(=O)N(c4ccccc4)C(=O)N23)c1,"inconclusive: 28.2 µM [activator, partial curve, poor fit]"
18,COC(=O)[C@]12C[C@H](CC(=O)N3CCN(C(=O)c4ccco4)CC3)C(=O)N(CCC3=CCCCC3)C1=C[C@H](C1CCCC1)O[C@@H]2C,"inconclusive: 28.2 µM [activator, single point]"
19,N#Cc1cccc(C(c2nnnn2C2CCCC2)N2CCCCCC2)c1 (stereo not drawn),"inconclusive: 14.1 µM [activator, partial curve]"
20,COc1ccc(C(=O)NCCn2cc(SCc3cccc(F)c3)c3ccccc32)cc1OC,"inconclusive: 39.8 µM [activator, single point]"

row,SMILES,Potency
1,C/C(=N\NC(=O)c1ccncc1)c1cccc(NC(=O)c2ccc(C(C)(C)C)cc2)c1,inactive
2,CCOC(=O)C1CCN(c2nc3c(S(=O)(=O)c4ccc(Br)cc4)nnn3c3ccsc23)CC1,"inconclusive: 10 µM [activator, full curve, poor fit]"
3,COc1ccc2oc(=O)c(C(=O)NCC3CCCO3)cc2c1 (stereo not drawn),inactive
4,COc1cc(C(=O)NC23CC4CC(CC(C4)C2)C3)cc(OC)c1OC,inactive
5,COCCCN(Cc1ccco1)C(=O)c1cc2c(s1)-c1ccccc1OC2,"inconclusive: 25.1 µM [activator, partial curve, poor fit]"
6,CCN1C(=O)[C@H]2[C@@H](c3ccc(C)cc3)N[C@]3(CCCN(Cc4cccn4C)C3=O)[C@H]2C1=O,"inconclusive: 22.4 µM [activator, partial curve, poor fit]"
7,CC(C)Cn1c(=O)c2ccccc2n2c(CCC(=O)N3CCN(c4cccc(Cl)c4)CC3)nnc12,"inconclusive: 28.2 µM [activator, partial curve, poor fit]"
8,Cc1nc(-c2cccc(S(=O)(=O)N3CCOCC3)c2)cs1,"inconclusive: 44.7 µM [activator, single point]"
9,O=C(NCCn1ccc2ccccc21)c1ccc(S(=O)(=O)N2CCCCC2)cc1,"inconclusive: 50.1 µM [activator, single point]"
10,C=C(C)Cn1c(SCC(=O)Nc2ccccc2C)nc2sc3c(c2c1=O)CCCC3,inactive
11,COc1ccc(CCNC(=O)Cn2cnc3c(cnn3C(C)(C)C)c2=O)cc1OC,inactive
12,Cc1ccccc1Oc1ccc2c(c1)[C@@H]1C[C@H](N(C)C(=O)NC3CCCCC3)[C@H]([C@H](C)O)C(=O)N1CC2,"inconclusive: 39.8 µM [activator, partial curve, poor fit]"
13,N#C/C(=C\c1ccc(Cl)cc1)C(=O)Nc1cccnc1,inactive
14,CN(CC(=O)Nc1cccc(S(=O)(=O)N2CCCC2)c1)CC(=O)Nc1ccc(Cl)c(C(F)(F)F)c1,"inconclusive: 50.1 µM [activator, single point]"
15,CC(C)C(C)NC(=O)CSc1nc2scc(-c3ccco3)c2c(=O)n1-c1ccccc1 (stereo not drawn),"inconclusive: 6.31 µM [activator, full curve]"
16,CCOc1ccc(S(=O)(=O)NCCc2csc(-c3ccc(Cl)cc3)n2)cc1,"inconclusive: 28.2 µM [activator, single point]"
17,CCCOc1ccc(NC(=O)CC2C(=O)N(c3ccc(C)cc3)C(=O)N2C(C)C)cc1 (stereo not drawn),inactive
18,CCOC(=O)c1c(C)[nH]c(C)c1C(=O)COC(=O)/C=C/c1cccc(C(F)(F)F)c1,"inconclusive: 31.6 µM [activator, single point]"
